Here are results for 84 compounds from ChEMBL document CHEMBL4888484, “Replenishing the malaria drug discovery pipeline: Screening and hit evaluation of the MMV Hit Generation Library 1 (HGL1) against asexual blood stage Plasmodium falciparum ,using a nano luciferase reporter read-out” (2022).

In all, about 150,000 compounds went through this assay and about 540 (0.36%) showed an effect of 50% or more. The list shows a part of the results.

In this experiment the test system is Plasmodium falciparum. Description: Primary screen in NF54 nanoGlo assay, in single point, at 2uM, 72h; a lower Z score goes with more inhibition. The settings on record: timepoint 72 hour. Format: functional, Erythrocyte.
Take `Cc1ccc(Cc2nnc(NC(=O)Cc3ccccc3Cl)o2)c(C)c1`: the “% Inhibition” value is reported as -13% and the Z score is 1.44.
On the same counts, the results for `CCCc1cc(C(=O)N2CC(=O)NC3CCCCC32)[nH]n1` (stereo not drawn) are 26% and -2.94.
On the same counts, the results for `CCCc1nc(CNC(=O)c2cncc(F)c2)cs1` are -4% and 0.54.
The like results for `Clc1ccc(CNCCc2c[nH]cn2)cc1` were, in that order, 36% and -5.15.
`O=C(Cn1cnc2c(-c3ccc(F)cc3)nsc2c1=O)NCCc1ccc(Cl)cc1`: the “% Inhibition” value was -1% and the Z score came out at 0.13.
On the same counts, the results for `Cc1ocnc1C(=O)NCc1ccc(N2CCC[C@H](C)C2)c(Cl)c1` are -5% and 0.61.
`Cc1[nH]c(=O)c(C#N)c(C)c1CCC(=O)N1CCC[C@@H]1Cn1ccnc1`: the “% Inhibition” value was -6% and the Z score was 1.12.
As for `O=C(Nc1ccc(N2CCOCC2)nc1)c1cc(C2CC2)nc2ccccc12`, the “% Inhibition” value was -5% and the Z score turned out to be 0.58.
On the same counts, the results for `CC(CNC(=O)C(C)N1C(=O)CCC1=O)COCc1ccccc1` (stereo not drawn) are -5% and 0.63.
On to `O=C1CN(C(=O)Cc2c(F)cccc2Cl)C2(CCCC2)CN1`, for which the “% Inhibition” value was 34% and the Z score is -4.65.
On the same counts, the results for `C=CCC1(N(Cc2ccccc2)C(C)=O)CCCC1` are 27% and -3.01.
On the same counts, the results for `COc1ccc2c(c1)OC(C)CN(CCC(=O)N[C@H]1CCCCNC1=O)C2` (stereo partly drawn) are 0% and 0.05.
On the same counts, the results for `C[C@@]1(C(=O)NC2CCCCC2)CCC(=O)N1Cc1ccc2c(c1)OCO2` are -6% and 0.7.
With `COc1ccc(N[C@H]2CCCN(C(=O)C3(N4CCCC4)CCCC3)C2)cc1OC`, the “% Inhibition” value is reported as -12% and the Z score is 1.85.
With `COc1ccc(N2C(=O)CN(C(=O)c3ccc(F)cc3F)CC23CCCC3)cc1`, the “% Inhibition” value is given as 12% and the Z score was -2.06.
The like results for `Cc1nn(C(C)C)c(C)c1NCc1cscn1` were, in that order, -4% and 0.43.
On the same counts, the results for `CC(C)N1CCNC(=O)[C@@H]1Cc1nc(-c2ccco2)n[nH]1` are -6% and 0.62.
The like results for `CCCN(CC(=O)Nc1ccc(F)c(F)c1F)C(=O)Cc1ccc(OC)c(S(=O)(=O)N2CCOCC2)c1` were, in that order, -1% and 0.2.
As to `Cc1cc(C)c(-n2cccn2)c(CN2CCC(=O)NC[C@@H]2C)c1`, the “% Inhibition” value was -6% and the Z score was found to be 0.92.
On the same counts, the results for `O=C(Cc1ccc(O)cc1)N1CCC([C@@H](O)CCc2ccccc2)CC1` are -4% and 0.72.
On the same counts, the results for `Cc1nn(C)c(C)c1S(=O)(=O)NC(=O)c1csc(C)c1C` are -8% and 1.52.
Regarding `CCO[C@@H](C)C(=O)Nc1n[nH]c(Cc2cccc(F)c2)n1`, the “% Inhibition” value was 31% and the Z score is reported as -4.12.
The like results for `O=C(NCCNc1ncccn1)c1ccco1` were, in that order, -8% and 1.21.
Consider `O=C(CCC1CCCC1)N1CC[C@@H](n2c(=O)[nH]c3cccnc32)C1`, for which the “% Inhibition” value is -14% and the Z score is recorded as 1.8.
The like results for `O=C(NC1CCCc2ccccc21)C1CCc2[nH]cnc2C1` (stereo not drawn) were, in that order, -17% and 2.84.
`CCOC(=O)C1CCN(C(=O)c2nn(-c3ccc(OC)cc3)c(=O)n(Cc3ccc(C(F)(F)F)cc3)c2=O)CC1`: the “% Inhibition” value worked out at 3% and the Z score is -0.45.
The like results for `CCC1CN(C(=O)c2cc(C(=O)OC)on2)CCC1c1ccccc1` (stereo not drawn) were, in that order, 5% and -0.79.
On the same counts, the results for `Cn1cc(C(=O)N2CCCC[C@H](c3ccccc3)C2)nn1` are -14% and 2.11.
With `CC1(C)OC(=O)N(CC(O)c2ccccc2)C1(C)O` (stereo not drawn), the “% Inhibition” value stood at 7% and the Z score was -0.77.
On the same counts, the results for `Cc1cc(C(=O)NCCc2ncc[nH]2)cc(Cl)c1Br` are 8% and -1.36.
The like results for `CCc1ocnc1C(=O)N[C@H]1CC(=O)N(CCCc2ccccc2)C1` were, in that order, 6% and -0.88.
The like results for `Cc1ccc(NC(=O)CN2C[C@@H]3CCC[C@H](C2)C(=O)N3)cc1` were, in that order, 1% and -0.17.
In the case of `CC(C)[C@H](NC(=O)c1cncc(F)c1)c1ncnn1C`, the “% Inhibition” value is reported as -15% and the Z score is on record as 1.96.
Turning to `CCc1nnc(CN(C(=O)c2oc3cc(OC)ccc3c2C)C(C)C)o1`, the “% Inhibition” value was -8% and the Z score was found to be 1.58.
For the compound `CC(C)c1ccoc1C(=O)N1CCS(=O)(=O)c2ccccc2C1`, the “% Inhibition” value was -3% and the Z score is listed as 0.51.
The like results for `CCCCCN(CCO)C(=O)CC[C@H]1CCCCN1C` were, in that order, -4% and 0.56.
On the same counts, the results for `NS(=O)(=O)Cc1noc(C2CC2)n1` are -1% and 0.12.
On the same counts, the results for `COC(=O)[C@H]1CN(c2ccccn2)C[C@@H]1c1ccc(F)cc1F` are -10% and 1.56.
For the compound `CC(C)CCCCN1CC[C@@](NC(=O)OC(C)(C)C)(C(=O)O)C1`, the “% Inhibition” value is given as 0% and the Z score came to 0.
The like results for `COc1cnc(CN(CCC2=CCCCC2)Cc2ccc(F)cc2)cc1O` were, in that order, -11% and 1.6.
The like results for `CC(C(=O)N1CCCc2ccccc21)N1CCCC(S(C)(=O)=O)CC1` (stereo not drawn) were, in that order, -15% and 2.01.
On the same counts, the results for `COC1(c2nc(-c3cccs3)no2)CCOCC1` are -3% and 0.64.
In the case of `Cn1ncc(CNC(=O)N[C@@H]2CCc3cc(F)ccc32)n1`, the “% Inhibition” value is given as -12% and the Z score came out at 2.22.
Consider `O=C(CNc1ccc(C2CC2)c(F)c1)Nc1ccccc1`, for which the “% Inhibition” value came out at 11% and the Z score is recorded as -1.37.
On the same counts, the results for `CN(C(=O)c1ccc2c(c1)OCCCO2)[C@H]1CCS(=O)(=O)C1` are 4% and -0.71.
Turning to `COc1ccc(Cl)cc1N1C(=O)[C@@H]2CCCN2[C@H]1c1ccccc1F`, the “% Inhibition” value is given as -16% and the Z score worked out at 2.08.
The like results for `Cc1ccc2c(Nc3cccc(Cl)c3)c(C(=O)N3CCCCCC3)cnc2n1` were, in that order, -6% and 1.
On the same counts, the results for `CN(C)CCN(CCS(=O)(=O)c1ccccc1)Cc1cccnc1` are 7% and -0.92.
On the same counts, the results for `CCNC(=O)CN(CC)C(=O)C1CCC(C(=O)OC)CC1` (stereo not drawn) are -30% and 2.97.
In the case of `CCN1C[C@@H](CN(C)S(=O)(=O)c2cc(-c3cc(C(F)(F)F)[nH]n3)oc2C)CC1=O`, the “% Inhibition” value is on record as -6% and the Z score was 0.88.
Take `Cc1ccc(Cn2c(=O)c(C(=O)NCc3ccccn3)nn(-c3ccc(C)c(C)c3)c2=O)cc1`: the “% Inhibition” value is listed as -19% and the Z score came out at 1.72.
As to `O=C(c1ccccc1)c1ccc2c(c1)N=Cc1c([nH]c(=O)n(-c3ccccc3)c1=O)N2`, the “% Inhibition” value is given as -8% and the Z score was 1.57.
The like results for `CCCNC(=O)C1CCN(c2c(-n3c(C)ccc3C)c(C)nn2-c2ccccc2)CC1` were, in that order, 7% and -1.22.
The like results for `Cc1nnsc1C(=O)NCCn1cc(-c2ccoc2)cn1` were, in that order, 21% and -2.65.
The like results for `Cc1cc(C)c2[nH]c(C(=O)N3CCC[C@H]3CO)c(C)c2c1` were, in that order, -5% and 0.8.
In the case of `Cc1ccc2nc3c(n2c1)[C@@H](c1cnc(N2CCCC2)nc1)CC(=O)NC3`, the “% Inhibition” value is 17% and the Z score was -2.13.
Regarding `CCCCc1c(O)nc(N2CCc3ccccc3C2)[nH]c1=O`, the “% Inhibition” value was 6% and the Z score is recorded as -1.01.
`CCCCc1nc(CN2C(=O)C[C@](C)(CC(C)C)C2=O)no1`: the “% Inhibition” value is -2% and the Z score was 0.2.
On the same counts, the results for `CCc1cc(CN(C)Cc2ccc(CO)o2)on1` are -4% and 0.59.
Take `CCOC(=O)[C@H]1CCCN(C(=O)c2coc(CN(Cc3ccc4c(c3)OCO4)Cc3cc(C)ccc3C)n2)C1`: the “% Inhibition” value was -5% and the Z score was 0.75.
On the same counts, the results for `Cc1cccc(NC(=O)CN(C)c2nnnn2-c2ccccc2)c1C` are -7% and 0.84.
On the same counts, the results for `Cc1ncnc2c1ncn2-c1cncc(C(N)=O)c1` are 1% and -0.18.
On the same counts, the results for `O=C(CCc1nnc2ccc(N3CCCCC3)nn12)Nc1ccc2c(c1)OCCO2` are 0% and 0.05.
With `O=C1NC(C2CC2)(C2CC2)C(=O)N1Cc1cc(-c2ccccc2)on1`, the “% Inhibition” value is on record as -2% and the Z score came out at 0.4.
On the same counts, the results for `CC(C)(C)OC(=O)NCC[C@H](NC(=O)C1CC(=O)C1)C(F)(F)F` are -5% and 0.85.
On the same counts, the results for `CCCN1CCC[C@H]1c1nc(Cc2cccnc2)no1` are -1% and 0.07.
On the same counts, the results for `Cn1c(CO)nnc1[C@H]1C[C@H](NC(=O)Cc2cccs2)C1` are -9% and 1.2.
For `COCCN1CCC[C@@]2(CCN(C/C(C)=C/c3ccco3)C2)C1`, the “% Inhibition” value is given as -19% and the Z score turned out to be 2.68.
On the same counts, the results for `c1n[nH]cc1C1CCCN1CCOC1CCCCO1` (stereo not drawn) are -5% and 0.73.
The like results for `CCN(CC)c1cc(CCC(=O)NCc2ccc(F)cc2F)ccn1` were, in that order, 8% and -1.07.
With `CC(C)C(=O)N1CCC([C@@H]2CN(C(=O)Cc3cccc(Cl)c3)C[C@H]2CO)CC1`, the “% Inhibition” value is 10% and the Z score is -1.11.
The like results for `c1ccc([C@@H]2COc3ccccc3N2)cc1` were, in that order, 2% and -0.29.
For the compound `CC1(C)CN(CCS(N)(=O)=O)C1(C)C`, the “% Inhibition” value was -3% and the Z score is listed as 0.41.
The like results for `O=C(NCc1ccc2c(c1)OCO2)[C@@H]1CCN(c2ccc(Cl)c(Cl)c2)C1=O` were, in that order, -6% and 1.17.
For `CCOc1ccc(NC(=O)C[C@H]2C(=O)N(Cc3ccccc3)CCN2Cc2ccccc2)cc1`, the “% Inhibition” value is recorded as -7% and the Z score is on record as 1.03.
On the same counts, the results for `Cc1ccc(NC(=O)Cn2c3cc(F)ccc3c(=O)n2C(C)(C)C)cc1F` are -4% and 0.53.
On the same counts, the results for `CCOc1ccc(OCc2nc([C@H]3CC34CCC4)n(C(C)C)n2)cc1` are -3% and 0.62.
For `O=C(COc1ccc(F)cc1)N1CC[C@H](Oc2ncccc2C(=O)N2CCCCC2)C1`, the “% Inhibition” value is listed as -7% and the Z score is 1.13.
The like results for `c1ccc2c(N3CCOCC3)nnc(N3CCCC3)c2c1` were, in that order, -7% and 1.05.
The like results for `CC(C)[C@H](CNC(=O)Nc1ccc2sncc2c1)c1cccnc1` were, in that order, -9% and 1.33.
The like results for `FC(F)(F)C1(C(F)(F)F)N=C(c2ccccc2)NC(c2ccccc2)=N1` were, in that order, -43% and 5.09.
`CN1Cc2ccccc2N(CC(=O)NCc2ccccc2)C1=O`: the “% Inhibition” value came to 1% and the Z score is on record as -0.11.
Regarding `COc1ccc(Cn2cc([C@H](CC(=O)N3CCCC3)c3ccc(OCc4ccccc4)c(OC)c3)c3ccccc32)cc1`, the “% Inhibition” value is recorded as -12% and the Z score amounted to 1.57.
The like results for `Cc1nc(C(C)C)oc1CN1CCCC[C@H]1c1nccs1` were, in that order, -10% and 1.67.

The term % Inhibition denotes the relative decrease from the control value, in per cent.
